Source: the supplement of paper PMC7826260
The list shows a part of the results. Cleavage of a single-stranded DNA pool by Rep nickase domains was read by sequencing for 1 h at 37 °C with 3 µM enzyme; only the middle of the 90-letter strands is printed. Values are log2 of uncut reads against the no-enzyme pool; strong cutting gives strongly negative numbers. There is no active / inactive call. The scaling is to total reads; uncut strands gain when others are lost, and binding without cutting may add a little.

Experiments:
Test in all cases: uncleaved DNA left, log2 of reads against the no-enzyme library (log2 ratio); higher = less cleavage (more negative = more Rep cleavage of the k-mer); sequences stand for … in CTCGTCCG…ACCGGAGA
[1] = test system: T1, Rep nickase domain of Muscovy duck circovirus
T1 sequence (protein, residues 1-111, tag omitted): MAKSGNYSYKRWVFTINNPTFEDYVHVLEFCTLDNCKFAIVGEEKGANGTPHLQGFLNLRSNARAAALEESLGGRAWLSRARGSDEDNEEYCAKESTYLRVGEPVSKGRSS
Procedure: (§1)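 A pool of 90-nt single-stranded DNAs with seven random bases just before the constant AC of the nick site (name = the seven bases) was cut by 3 µM recombinant His6-SUMO-tagged Rep nickase domain (300 nM DNA, 50 mM HEPES pH 8.0, 50 mM NaCl, 1 mM MnCl2, 1 h, 37 °C, three replicates). Uncut DNA was amplified and sequenced.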

[2] = test system: T2, Rep nickase domain of banana bunchy top virus
T2 sequence (protein, residues 1-94, tag omitted): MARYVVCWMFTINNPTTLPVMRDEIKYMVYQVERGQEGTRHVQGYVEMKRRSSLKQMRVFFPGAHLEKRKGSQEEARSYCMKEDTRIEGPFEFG
Procedure: as §1

[3] = test system: T3, Rep nickase domain of cabbage leaf curl virus
T3 sequence (protein, residues 1-116, tag omitted): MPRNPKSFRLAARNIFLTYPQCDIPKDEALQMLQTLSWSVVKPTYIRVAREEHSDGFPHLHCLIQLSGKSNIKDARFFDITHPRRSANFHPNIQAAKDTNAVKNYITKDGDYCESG
Procedure: as §1

[4] = test system: T4, Rep nickase domain of chickpea chlorotic dwarf virus
T4 sequence (protein, residues 1-124, tag omitted): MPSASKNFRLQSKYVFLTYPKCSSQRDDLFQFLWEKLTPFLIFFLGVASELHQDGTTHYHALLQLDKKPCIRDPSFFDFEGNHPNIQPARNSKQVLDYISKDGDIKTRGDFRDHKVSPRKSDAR
Procedure: as §1

[5] = test system: T5, Rep nickase domain of faba bean necrotic yellows virus
T5 sequence (protein, residues 1-98, tag omitted): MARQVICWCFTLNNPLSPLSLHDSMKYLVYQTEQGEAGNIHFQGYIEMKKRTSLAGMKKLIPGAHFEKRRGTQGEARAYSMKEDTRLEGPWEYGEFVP
Procedure: as §1

[6] = test system: T6, Rep nickase domain of maize striate mosaic virus
T6 sequence (protein, residues 1-117, tag omitted): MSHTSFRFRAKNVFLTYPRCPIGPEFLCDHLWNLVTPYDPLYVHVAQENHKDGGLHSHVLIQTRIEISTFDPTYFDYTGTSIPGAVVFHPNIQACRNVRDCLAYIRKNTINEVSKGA
Procedure: as §1

[7] = test system: T7, Rep nickase domain of porcine circovirus 2
T7 sequence (protein, residues 2-116, tag omitted): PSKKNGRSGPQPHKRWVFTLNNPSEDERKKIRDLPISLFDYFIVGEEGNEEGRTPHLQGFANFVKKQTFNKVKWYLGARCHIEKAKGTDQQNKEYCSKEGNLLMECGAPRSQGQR
Procedure: as §1

[8] = test system: T8, Rep nickase domain of tomato yellow leaf curl virus
T8 sequence (protein, residues 1-136, tag omitted): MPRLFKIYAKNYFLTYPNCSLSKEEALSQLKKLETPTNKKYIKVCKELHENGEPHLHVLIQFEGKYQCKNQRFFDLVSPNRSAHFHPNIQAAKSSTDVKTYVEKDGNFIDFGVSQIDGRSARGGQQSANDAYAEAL
Procedure: as §1

[9] = test system: T9, Rep nickase domain of wheat dwarf virus
T9 sequence (protein, residues 1-137, tag omitted): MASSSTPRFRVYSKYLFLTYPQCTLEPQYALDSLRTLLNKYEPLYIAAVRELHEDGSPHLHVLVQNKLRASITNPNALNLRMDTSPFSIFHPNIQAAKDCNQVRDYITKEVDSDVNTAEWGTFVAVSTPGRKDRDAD
Procedure: as §1

Sequence | uncleaved DNA left (log2) [1] | uncleaved DNA left (log2) [2] | uncleaved DNA left (log2) [3] | uncleaved DNA left (log2) [4] | uncleaved DNA left (log2) [5] | uncleaved DNA left (log2) [6] | uncleaved DNA left (log2) [7] | uncleaved DNA left (log2) [8] | uncleaved DNA left (log2) [9]
CCGCAAG | 0.0424 | -0.0335 | -0.713 | -0.407 | 0.024 | -0.661 | 0.239 | 0.0273 | -0.0713
ACAATTT | 0.00529 | -0.0391 | -0.365 | -2.92 | -0.122 | -1.05 | -0.134 | -0.22 | -0.0691
ATCTGGG | -0.0591 | -0.0396 | -0.559 | -0.504 | -0.079 | -1.13 | 0.133 | 0.0515 | -0.105
GTTTGTC | 0.0472 | 0.0889 | 0.436 | 1.21 | 0.0254 | 1.18 | 0.113 | 0.188 | 0.121
AGATAGT | -2.82 | -0.0508 | -0.317 | -1.08 | -0.0288 | -0.643 | -3.44 | 0.0613 | -0.418
ATCTATG | -0.00368 | 0.0174 | -0.444 | -0.409 | 0.0931 | -1.02 | 0.286 | 0.0612 | 0.0553
TATCTTG | -0.0321 | -0.0189 | -0.482 | -2.41 | 0.0863 | -1.12 | 0.1 | -0.00859 | -0.203
ACGTTTG | 0.15 | 0.00651 | -0.529 | -0.347 | -0.0971 | -0.927 | 0.0224 | -0.0512 | -0.0124
AGGTTTA | -0.0299 | 0.0546 | 0.00791 | -0.467 | 0.0247 | 0.388 | -0.272 | 0.0914 | 0.0348
TACCAGT | 0.017 | 0.0779 | -0.318 | -2.28 | 0.0109 | -0.888 | -1.22 | 0.051 | -0.0699
CCCCTGA | 0.121 | 0.034 | 0.0411 | -0.217 | 0.00835 | -0.395 | -0.0706 | -0.103 | 0.0542
AGAAAGT | 0.0479 | -0.0147 | 0.0671 | -0.177 | 0.075 | -0.725 | 0.0194 | 0.0977 | 0.039
AGGATAG | 0.102 | 0.0885 | -0.147 | 0.141 | 0.00193 | -0.665 | 0.285 | 0.0833 | 0.0818
TGAACAA | 0.0805 | 0.144 | 0.302 | 0.436 | 0.0273 | 0.315 | 0.177 | 0.171 | 0.211
TTCTCCT | -0.41 | -0.204 | -0.0413 | -1.11 | 0.0548 | 0.715 | -0.893 | -0.0247 | -0.21
GATCGCC | 0.0435 | -0.0391 | 0.0866 | 0.16 | -0.0621 | -0.0323 | 0.0176 | 0.0053 | 0.00469
TGCCATG | 0.0315 | 0.0546 | -0.24 | -0.306 | -0.124 | -0.434 | 0.0352 | 0.00467 | -0.0263
GTACGGG | 0.193 | 0.122 | 0.338 | 0.711 | -0.0454 | 0.642 | 0.145 | -0.0489 | 0.0906
GCTTCCG | -0.0244 | -0.00665 | -0.677 | -0.531 | -0.0603 | -0.874 | 0.18 | -0.0152 | -0.0913

Sequence | uncleaved DNA left (log2) [1] | uncleaved DNA left (log2) [2] | uncleaved DNA left (log2) [3] | uncleaved DNA left (log2) [4] | uncleaved DNA left (log2) [5] | uncleaved DNA left (log2) [6] | uncleaved DNA left (log2) [7] | uncleaved DNA left (log2) [8] | uncleaved DNA left (log2) [9]
TAGTATA | -0.301 | -0.456 | -0.198 | -2.32 | -1.08 | 0.176 | -3.21 | -0.00187 | 0.0629
TGCACCC | 0.000246 | -0.0597 | 0.198 | 0.344 | 0.00183 | 0.272 | -0.256 | -0.0258 | 0.0743
ATCCTCT | 0.0135 | -0.0249 | -0.135 | -1.79 | -0.0257 | -0.621 | -0.345 | -0.0028 | -0.101
ATTCGAG | 0.0647 | 0.0431 | 0.0264 | 0.302 | 0.0749 | -0.713 | 0.0591 | 0.0672 | 0.0844
TTGGAAA | 0.0142 | -0.0299 | 0.353 | 0.77 | 0.018 | 0.575 | 0.0164 | -0.0249 | 0.0191
GGGCCCA | -0.0606 | 0.0283 | 0.703 | 1.68 | -0.114 | 2.08 | 0.117 | 0.0187 | -0.00785
CAAGCCA | 0.0379 | 0.104 | -0.033 | -1.43 | -0.0196 | -0.187 | 0.132 | 0.00271 | 0.023
TTAGTGG | 0.086 | 0.0632 | 0.359 | 0.643 | 0.0891 | 0.537 | 0.145 | -0.0105 | 0.099
GGAGTGA | 0.124 | 0.0495 | 0.674 | 1.31 | 0.065 | 1.61 | 0.182 | 0.0929 | 0.183
GTTTTGA | 0.0769 | 0.0838 | 0.402 | 0.952 | 0.0255 | 1.77 | 0.248 | 0.0932 | 0.123
ACGGTTC | 0.148 | 0.0117 | -0.0241 | -0.336 | 0.0463 | 0.0924 | 0.126 | -0.0528 | 0.0212
TGTGCGG | -0.0638 | -0.0564 | 0.296 | 0.764 | -0.0366 | 1.02 | -0.0227 | -0.151 | -0.0175
TCGTGCC | -0.191 | -0.17 | -0.239 | -0.479 | -0.0652 | -0.863 | -0.207 | -0.135 | -0.178
GAATTGT | -0.786 | -0.00964 | -2.85 | -2.23 | -0.123 | -1.75 | -3.22 | -0.0545 | -1.73
ATTAGGG | 0.169 | 0.0773 | -0.229 | -0.178 | 0.046 | -0.867 | 0.159 | 0.104 | -0.0104
AAGCTTC | 0.021 | -0.0467 | 0.11 | -0.142 | -0.125 | 0.118 | -0.207 | -0.0606 | -0.0238
CTCGCCA | -0.133 | -0.0796 | -0.0452 | -0.849 | 0.0974 | -0.498 | -0.143 | -0.1 | -0.0632
AACCAAC | -0.0171 | 0.0936 | -0.216 | -1.4 | -0.0647 | -0.702 | -0.185 | -0.106 | 0.00844
TGATCCA | -0.0408 | 0.0117 | 0.114 | -0.402 | 0.00274 | 0.298 | -0.122 | -0.0357 | -0.0787

Sequence | uncleaved DNA left (log2) [1] | uncleaved DNA left (log2) [2] | uncleaved DNA left (log2) [3] | uncleaved DNA left (log2) [4] | uncleaved DNA left (log2) [5] | uncleaved DNA left (log2) [6] | uncleaved DNA left (log2) [7] | uncleaved DNA left (log2) [8] | uncleaved DNA left (log2) [9]
ATCATTA | -0.0324 | -0.259 | -0.448 | -1.61 | -0.0629 | -0.942 | -0.0916 | -0.323 | -0.151
TCCATGG | 0.0626 | -0.0104 | 0.123 | 0.465 | -0.109 | -0.143 | 0.108 | -0.124 | -0.0655
ATAGCTC | 0.00696 | -0.127 | -0.0686 | -0.553 | 0.0109 | -0.515 | -0.0282 | -0.122 | -0.142
TGATCGA | 0.0769 | -0.0401 | -0.242 | -0.575 | -0.0177 | -0.953 | -0.0137 | -0.00758 | -0.0265
GTGATTT | -0.0917 | -0.0669 | 0.243 | 0.744 | -0.162 | 1.63 | -0.123 | -0.0624 | 0.0518
TTTGGAA | 0.1 | -0.0106 | 0.258 | 0.502 | -0.00811 | 0.533 | 0.114 | 0.0105 | -0.0935
TTTCTGG | 0.0644 | -0.0473 | 0.371 | 0.818 | 0.0733 | 1.03 | 0.0702 | 0.00217 | -0.0323
CTATTTC | -0.0361 | -0.153 | -0.189 | -0.401 | -0.0441 | -0.932 | -0.0343 | -0.0475 | -0.118
TTGTGAA | 0.0801 | 0.048 | -0.00509 | -0.0639 | 0.0281 | -0.403 | 0.0167 | 0.037 | -0.0521
GTTTCAT | 0.00694 | 0.131 | 0.304 | 0.992 | -0.0363 | 1.84 | 0.129 | 0.109 | 0.132
TAGTCAG | -0.0147 | 0.0513 | -0.743 | -0.666 | 0.0674 | -1.21 | -0.883 | 0.0178 | -0.048
CAGCCGG | 0.00234 | 0.0201 | 0.322 | 0.765 | 0.0778 | 0.726 | 0.121 | -0.18 | 0.0174
AGACAGC | -0.117 | -0.0362 | 0.448 | 1.27 | 0.0104 | 1.07 | 0.191 | 0.00243 | 0.0251
TCGAAAA | -0.0106 | 0.096 | 0.123 | 0.0313 | 0.0137 | -0.448 | -0.0201 | 0.104 | 0.0683
TACGTAT | 0.0673 | -0.0961 | -0.608 | -2.14 | -0.00824 | -0.335 | -0.417 | -0.0863 | -0.138
CACTAGA | 0.118 | 0.106 | -0.124 | -0.575 | 0.17 | -0.75 | -0.381 | 0.11 | 0.127
CGGTGCC | -0.0264 | 0.0858 | -0.119 | 0.0826 | -0.0836 | -0.251 | 0.0237 | 0.0688 | -0.0469
CCCAGTC | -0.0447 | -0.145 | -0.0779 | -0.266 | -0.0479 | -1.01 | -0.006 | 0.0161 | -0.152
